# Measurements: PMC4336329 (PLoS ONE, 2015)
# Out of some 310,000 compounds screened, about 14,000 (4.5%) showed an effect of 50% or more. The effect is printed as a negative number. The list shows a part of the results.
# Molecular target: human ether-à-go-go-related gene (hERG) potassium channel (human, UniProt Q12809)
# Experiment: primary screen, population patch clamp on CHO cells stably expressing hERG
# 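Further: peak tail current of the secondary pulse compared with the same well before compound.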
# Sequence of human ether-à-go-go-related gene (hERG) potassium channel (Q12809 whole entry, looked up): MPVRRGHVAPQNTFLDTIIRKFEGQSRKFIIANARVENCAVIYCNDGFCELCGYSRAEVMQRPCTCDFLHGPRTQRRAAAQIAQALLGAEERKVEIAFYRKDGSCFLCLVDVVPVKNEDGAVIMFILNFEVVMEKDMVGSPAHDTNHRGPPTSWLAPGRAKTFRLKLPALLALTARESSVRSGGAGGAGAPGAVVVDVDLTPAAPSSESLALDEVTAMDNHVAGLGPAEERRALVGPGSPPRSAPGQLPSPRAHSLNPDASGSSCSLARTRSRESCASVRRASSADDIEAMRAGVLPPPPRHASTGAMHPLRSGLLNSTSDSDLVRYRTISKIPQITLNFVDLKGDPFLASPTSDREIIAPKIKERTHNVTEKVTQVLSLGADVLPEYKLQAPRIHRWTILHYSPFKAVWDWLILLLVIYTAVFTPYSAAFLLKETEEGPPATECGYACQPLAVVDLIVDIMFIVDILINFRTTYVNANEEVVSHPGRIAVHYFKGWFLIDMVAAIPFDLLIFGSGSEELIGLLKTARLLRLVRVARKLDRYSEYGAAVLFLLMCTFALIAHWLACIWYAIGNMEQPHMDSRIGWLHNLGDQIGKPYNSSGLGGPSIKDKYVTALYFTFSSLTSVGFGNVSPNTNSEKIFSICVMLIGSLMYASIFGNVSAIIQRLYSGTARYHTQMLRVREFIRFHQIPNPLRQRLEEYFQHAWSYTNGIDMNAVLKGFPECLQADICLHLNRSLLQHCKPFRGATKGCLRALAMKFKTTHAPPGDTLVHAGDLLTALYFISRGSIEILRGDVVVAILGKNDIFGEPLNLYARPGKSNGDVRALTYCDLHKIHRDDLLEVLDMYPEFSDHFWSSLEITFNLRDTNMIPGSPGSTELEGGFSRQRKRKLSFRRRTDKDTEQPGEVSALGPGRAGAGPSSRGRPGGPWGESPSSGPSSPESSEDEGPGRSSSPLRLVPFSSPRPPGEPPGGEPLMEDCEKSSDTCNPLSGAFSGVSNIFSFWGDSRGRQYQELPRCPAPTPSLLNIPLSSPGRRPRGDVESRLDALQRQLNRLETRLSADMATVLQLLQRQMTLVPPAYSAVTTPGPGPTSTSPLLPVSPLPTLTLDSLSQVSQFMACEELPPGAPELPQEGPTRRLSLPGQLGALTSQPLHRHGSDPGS
row,SMILES,"hERG current change (%, negative = inhibition) at 10uM"
1,COc1ccc(OCC(=O)Nc2ccc(S(=O)(=O)N3CCCC3)cc2)cc1,21.5%
2,CCN(CC)S(=O)(=O)c1ccc(N2CCOCC2)c(NC(=O)Cc2cccc3ccccc23)c1,-1.03%
3,COc1ccc(-c2cc(C(=O)Nc3c(C)nn(Cc4ccccc4Cl)c3C)no2)cc1OC,-3.61%
4,Cc1nc2nc[nH]n2c(=O)c1CCOC(=O)c1ccccc1F,20.7%
5,Cc1ccc(CN2CCc3c(OCc4ccc(F)cc4)cccc3C2=O)cc1,4.43%
6,Brc1ccccc1-c1nnc(SCc2nc3ccccc3s2)o1,7.76%
7,O=C(Cn1ncc2c3ccccc3n(Cc3ccccc3)c2c1=O)NCCCN1CCOCC1,-45.2%
8,CCc1ccc(-c2nc(NC(=S)NC(=O)c3cccs3)sc2C)cc1,7.56%
9,COc1ccc(C(=O)N2CCCC(Nc3ccc(C(C)C)cc3)C2)c(OC)n1 (stereo not shown),-23.4%
10,Cn1ncc(Cl)c1C(=O)NC1CCCC1,3.29%
11,CCN1CCN(CCCNC(=O)c2ccc(NC(=O)C3=C(C)OCCS3)cc2)CC1,17.6%
12,O=C(CSc1nnc(-c2ccc(OC(F)F)cc2)o1)NC(=O)NCc1ccco1,-23.2%
13,NC1=NC(c2cccnc2)n2c(nc3ccccc32)N1 (stereo not shown),18.5%
14,O=C1OC(Nc2nc(-c3ccc(F)cc3)cs2)c2ccccc21 (stereo not shown),15.4%
15,CC(C)C[C@H]1CN=C(Nc2ccccc2)N1CC1CCCCC1,-45.7%
16,CCN(C(=O)COC(=O)c1ccc(OC)c(S(=O)(=O)N2CCCc3ccccc32)c1)C1CCS(=O)(=O)C1 (stereo not shown),9.15%
17,CC1CC(C)CN(C(=O)C(C)N2CCN(S(=O)(=O)c3cccs3)CC2)C1 (stereo not shown),-7.55%
18,CN(C)CCN=Cc1c(O)n(-c2cccc(C(F)(F)F)c2)c(=O)[nH]c1=O,7.43%
19,O=C(CSc1nnc(-c2ccccc2F)o1)N1CCCC1,17.9%
20,Cc1ccc(C(=O)C(C)OC(=O)Cc2n[nH]c(=O)c3ccccc23)cc1 (stereo not shown),-19.7%
21,COCc1ccc(CN2CCCC(CO)(Cc3ccccc3C)C2)o1 (stereo not shown),2.18%
22,COc1ccccc1C(=O)NCCC(=O)NCCC12CC3CC(CC(C3)C1)C2,-25%

row,SMILES,"hERG current change (%, negative = inhibition) at 10uM"
1,CCOc1ccc(S(=O)(=O)NCCCN2CCOCC2)c2ccccc12,-12.3%
2,Cc1c(C)c2cc(Cl)c(O)c(CN3CCCC(C)C3)c2oc1=O (stereo not shown),8.5%
3,COc1ccc(S(=O)(=O)NNC(=S)NCCc2ccccc2)c(OC)c1,3.23%
4,COc1ccc(C(=O)Nc2ccc(NC(=O)Cc3ccccc3)cn2)cc1,14.3%
5,COc1ccccc1-c1ccc(SCc2cccc(C)c2)nn1,-26.6%
6,Cc1ccc(-c2[nH]nc3c2C(c2ccc(OC(=O)N4CCOCC4)cc2)C(C#N)=C(N)O3)cc1 (stereo not shown),5.41%
7,CCOC(=O)CN(C)C(=O)CCc1nnc(-c2ccc(-c3ccccc3)cc2)o1,-22.5%
8,CCC(=O)c1ccc(OCC(=O)N(C)CC(=O)Nc2cccc(F)c2)cc1,1.21%
9,O=C(Nc1cc(S(=O)(=O)N2CCCCC2)ccc1N1CCOCC1)c1ccc(C(F)(F)F)cc1,-6.5%
10,Cc1ccc(NC(=O)C2=C(C(=O)O)CCCC2)cc1F,7.33%
11,COc1ccc(CNC(=O)CN(c2cc(C)cc(C)c2)S(=O)(=O)c2c(C)noc2C)cc1,-11.1%
12,CC(C)(C)c1ccccc1NC(=O)C1=COCCO1,-11.3%
13,COc1ccc(CCNC(=O)c2ccn[nH]2)cc1OC,3.09%
14,O=C(CNC(=O)/C(=C\c1ccccc1)NC(=O)c1ccc(Br)cc1)OCc1ccccc1,-69.1%
15,O=C(COc1ccc(Cl)cc1)c1ccc(O)cc1O,-8.7%
16,COC(=O)CC1C(=O)NC2CCCCC2N1C(=O)c1ccccc1 (stereo not shown),3.2%
17,Cc1c(C)c2cc(Cl)c(O)c(CN3CCN(C)CC3)c2oc1=O,-0.384%
18,Cc1cc(C)n(-c2ccc(C(=O)N3CCN(S(=O)(=O)c4ccc(Cl)cc4)CC3)cc2)n1,-25.8%
19,O=C(O)CNC(=S)N(Cc1ccccc1Cl)C1CCCC1,16.2%
20,COC(=O)c1ccc(NC(=O)CSc2nnc(C(C)NC(=O)c3ccccc3Cl)n2C)cc1 (stereo not shown),8.51%
21,Cc1ccc2nc(Nc3ccc(C)c(C)c3)c3nncn3c2c1,14.5%
22,CCCCOc1ccc(C(C)NC(=O)C2CCCN(S(=O)(=O)CCC)C2)cc1 (stereo not shown),-0.162%

row,SMILES,"hERG current change (%, negative = inhibition) at 10uM"
1,Cc1cnc(CN2CCc3c([nH]c4ccccc34)C2CC(C)C)[nH]1 (stereo not shown),-45.1%
2,Cc1ccc(NC(=O)COC(=O)CN2CCCCCC2=O)c(C)c1,-13.1%
3,Cc1ccc(NC(=O)CNCc2ccccn2)cc1S(=O)(=O)N(C)C,20.9%
4,O=S(=O)(c1ccc(F)cc1)N1CCc2ccccc2C1,1.03%
5,CCCCc1nc2sc3c(SCCN(C)C)ncnc3c2c2c1CCC2,10.4%
6,O=C(Nc1ccc2c(c1)OCO2)C1CCN(S(=O)(=O)c2cccs2)CC1,-8.65%
7,COc1ccc(CCNC(=O)COC(=O)C23CC4CC(CC(Br)(C4)C2)C3)cc1,7.64%
8,CC(C)c1nc2oc3c(=O)[nH]cnc3c2c2c1COC(C)(C)C2,5.89%
9,Cc1ccccc1-c1nsc(SCC(=O)Nc2ccc3c(c2)OCO3)n1,25.7%
10,Cc1cc(=O)oc(C)c1C(=O)NCc1cccnc1,6.68%
11,COC(=O)C1=COC(C)C2CN3CCC4(C(=O)Nc5ccccc54)C3CC12 (stereo not shown),-5.81%
12,Nc1ccccc1SC1CC(=O)N(c2ccc(Cl)c(Cl)c2)C1=O (stereo not shown),17.5%
13,O=C1CCCN1CC1CCN(Cc2nc(CC3CC3)no2)CC1,-0.629%
14,Cc1ccccc1CCNC(=O)CCn1ccc2cc(S(=O)(=O)N3CCCC3)ccc21,-20.3%
15,CCOc1ccc(C2N(c3ccc(F)cc3)C(=O)C3CCCN32)cc1 (stereo not shown),7.56%
16,O=C(c1ccc(Cl)cc1)N1CCn2c1nc1ccccc12,-11.8%
17,COc1cc(/C=C\C(=O)Nc2cc(=O)n(C)c(=O)n2C)cc(OC)c1OC,1.94%
18,O=C(NC1CCCCC1)c1ccc2c(c1)OCO2,15.9%
19,O=C(N=Nc1c(O)[nH]c2ccccc12)c1cc(NS(=O)(=O)c2cccs2)cc(NS(=O)(=O)c2cccs2)c1,6.25%
20,C=CCn1cnc2c(c1=O)c1nc3ccccc3nc1n2/N=C/c1cc(OC)c(OC)c(OC)c1,-22.1%
21,C(=N\n1cnnc1)/c1ccc2c(c1)OCO2,4.26%
22,Cc1cccc(C(=O)N[C@@H]2c3ccccc3C[C@@H]2O)n1,-0.112%

row,SMILES,"hERG current change (%, negative = inhibition) at 10uM"
1,Cc1cc(=O)oc2c(C)c(OC(C)C(=O)NCCCN3CCCC3=O)ccc12 (stereo not shown),14.3%
2,COc1ccc(/C=N/S(=O)(=O)CCc2ccccc2)c(OC)c1,3.58%
3,CCCCCC(=O)O/N=C(\C)c1ccn(S(=O)(=O)c2ccccc2)c1,19.4%
4,O=c1[nH]c(=S)n(C2CC2)c(O)c1C=Nc1ccc2c(c1)OCO2,-13.6%
5,COc1cc(NC(=O)CCN2CCN(Cc3ccccc3)CC2)cc(OC)c1,-20.1%
6,Cc1ccc(NC(=O)C2CCN(S(=O)(=O)c3ccc4c(c3)OCCCO4)CC2)nc1,-4.85%
7,Cc1ccccc1OCC(O)CN(Cc1ccccc1O)C1CCCCC1 (stereo not shown),-28%
8,CCCn1c(=O)c2ccccc2n2c(SCC(=O)Nc3cc(C)on3)nnc12,8.17%
9,CC(Sc1nnnn1C)C(=O)NC(=O)NC1CCCCC1 (stereo not shown),8.57%
10,C=CCn1c(-c2cccc(Cl)c2)n[nH]c1=S,13.5%
11,CCC(C)(NC(=O)c1ccccc1)C(=O)O (stereo not shown),11%
12,COc1ccc(CCNC(=O)CN(c2ccccc2OC)S(C)(=O)=O)cc1OC,5.96%
13,Cc1cc(C)nc(SCc2nnc(SCc3ccc([N+](=O)[O-])cc3)n2Cc2ccco2)n1,-80.6%
14,Cc1c(OCC(F)(F)F)ccnc1CS(=O)c1nc2ccccc2[nH]1 (stereo not shown),4.98%
15,N#CCC(=O)N/N=C/c1ccc(SCC(=O)Nc2ccccc2)o1,13.5%
16,O=C(O)Cn1c(SC2CCCCC2)nc2ccccc21,5.77%
17,COc1ccc(-n2nc(C(=O)NCC(=O)NCCCN3CC(C)CC(C)C3)c3ccccc3c2=O)cc1Cl (stereo not shown),-62.3%
18,CCN(CC)C(=O)C(C(=O)c1cccc([N+](=O)[O-])c1)n1cc(Cl)ccc1=O (stereo not shown),24.8%
19,Cc1ccsc1C(=O)Nc1ccccc1N1CCOCC1,-32.6%
20,Cc1cccc(NC(=O)C2CCCN2C(=O)OCc2ccccc2)c1 (stereo not shown),1.6%
21,Nc1ccccc1C#Cc1ccc([N+](=O)[O-])cc1,1.66%
22,CCCNC(=O)C(Cc1ccccc1F)NC(=O)c1ccccn1 (stereo not shown),4.67%
